{"source": "the supplement of paper PMC6531468", "note": "The other results are listed elsewhere or left out. Read counts after selection give these values, which scatter widely. Scores sum up all selected molecules that hold the word; the word was not tested alone.", "data": [{"tested_on": "IMP3 KH1-4", "sequence (chain, as listed by the source)": "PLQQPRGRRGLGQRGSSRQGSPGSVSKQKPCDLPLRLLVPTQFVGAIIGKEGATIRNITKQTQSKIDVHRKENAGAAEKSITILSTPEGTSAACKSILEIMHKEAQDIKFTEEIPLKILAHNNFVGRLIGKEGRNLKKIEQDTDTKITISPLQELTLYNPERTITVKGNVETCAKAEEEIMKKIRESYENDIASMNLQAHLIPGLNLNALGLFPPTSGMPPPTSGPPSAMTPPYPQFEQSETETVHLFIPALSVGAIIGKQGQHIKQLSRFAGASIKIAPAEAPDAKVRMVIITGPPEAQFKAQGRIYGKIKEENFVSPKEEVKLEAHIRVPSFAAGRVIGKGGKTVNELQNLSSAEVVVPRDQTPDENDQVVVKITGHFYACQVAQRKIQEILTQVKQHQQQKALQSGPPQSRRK", "test": "6-mer SELEX enrichment z-score vs GST control; IMP3 is the RNA-binding protein IGF2BP3; higher = more enriched by binding", "details": "construct: KH1-4 (164-579); SELEX round: R4", "experimental": "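SELEX-seq with GST-tagged IMP3 KH1-4 (Pro164-Lys579) and an N40 RNA pool, round 4. 6-mer z-score of sequence-tag enrichment normalised to the corresponding GST SELEX round; RNA k-mers written as DNA (T for U).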", "values": [{"sequence": "AGAGAG", "6-mer SELEX enrichment z-score": 0.431}, {"sequence": "CGGTGC", "6-mer SELEX enrichment z-score": -0.447}, {"sequence": "AGTTCG", "6-mer SELEX enrichment z-score": -0.001}, {"sequence": "GCTATA", "6-mer SELEX enrichment z-score": 0.77}, {"sequence": "CTTAGC", "6-mer SELEX enrichment z-score": -0.459}, {"sequence": "CTTTGC", "6-mer SELEX enrichment z-score": 0.171}, {"sequence": "TATTGA", "6-mer SELEX enrichment z-score": 0.63}, {"sequence": "CAATAC", "6-mer SELEX enrichment z-score": 1.03}, {"sequence": "CAGTAC", "6-mer SELEX enrichment z-score": 0.14}, {"sequence": "ATCTTT", "6-mer SELEX enrichment z-score": 0.681}, {"sequence": "ATATCT", "6-mer SELEX enrichment z-score": 0.594}, {"sequence": "ATCTTA", "6-mer SELEX enrichment z-score": 0.27}, {"sequence": "CTCGGC", "6-mer SELEX enrichment z-score": 0.129}, {"sequence": "CCAGCG", "6-mer SELEX enrichment z-score": -2.24}, {"sequence": "CCGTCA", "6-mer SELEX enrichment z-score": -0.289}, {"sequence": "AAGCTA", "6-mer SELEX enrichment z-score": -0.601}, {"sequence": "CCTGGA", "6-mer SELEX enrichment z-score": -0.745}, {"sequence": "CCAGGT", "6-mer SELEX enrichment z-score": -0.218}, {"sequence": "CGTTGA", "6-mer SELEX enrichment z-score": -0.986}, {"sequence": "CCAAGA", "6-mer SELEX enrichment z-score": -1.81}, {"sequence": "CTGTCG", "6-mer SELEX enrichment z-score": -0.033}, {"sequence": "TATGAT", "6-mer SELEX enrichment z-score": 1.33}, {"sequence": "CAACCG", "6-mer SELEX enrichment z-score": -0.962}, {"sequence": "GTTCCT", "6-mer SELEX enrichment z-score": 0.085}, {"sequence": "CATTCG", "6-mer SELEX enrichment z-score": 0.449}, {"sequence": "CTATTA", "6-mer SELEX enrichment z-score": 1.14}, {"sequence": "TGTCAG", "6-mer SELEX enrichment z-score": 0.06}, {"sequence": "GCTTTG", "6-mer SELEX enrichment z-score": 0.082}, {"sequence": "TTTCTT", "6-mer SELEX enrichment z-score": 0.759}, {"sequence": "ACGGAT", "6-mer SELEX enrichment z-score": 0.328}, {"sequence": "CTGGAC", "6-mer SELEX enrichment z-score": -0.316}, {"sequence": "TACAAA", "6-mer SELEX enrichment z-score": 0.708}, {"sequence": "CCTACA", "6-mer SELEX enrichment z-score": -0.191}, {"sequence": "GGATTA", "6-mer SELEX enrichment z-score": 0.69}, {"sequence": "GATACC", "6-mer SELEX enrichment z-score": -1.16}, {"sequence": "GTGACC", "6-mer SELEX enrichment z-score": -0.809}, {"sequence": "ATCGAG", "6-mer SELEX enrichment z-score": -2.09}, {"sequence": "TAAGTT", "6-mer SELEX enrichment z-score": 0.235}, {"sequence": "TCGTAA", "6-mer SELEX enrichment z-score": -0.384}, {"sequence": "CTGCGT", "6-mer SELEX enrichment z-score": -1.57}]}]}
